Substitutions are numbered along the chain they refer to. Results are given in words; binding and its absence hold for the method and conditions named. Some entries that bind do so weakly or less than the wild type. Sequences can lack the tags named with a protein.
Experiments:
Assay in all cases: two-hybrid; one-hybrid assay: Kar4p-Gal4 DNA-binding domain recruits endogenous Ste12p to drive the HIS3 reporter in PJ69-4A; 10-fold serial dilutions on SC-HIS with 3 uM alpha-factor, 30 degrees; graded ++++ to -
[1] = biological target: T1, Kar4p A157P fused to the Gal4p DNA-binding domain (S. cerevisiae) (UniProt P25583)
T1 sequence: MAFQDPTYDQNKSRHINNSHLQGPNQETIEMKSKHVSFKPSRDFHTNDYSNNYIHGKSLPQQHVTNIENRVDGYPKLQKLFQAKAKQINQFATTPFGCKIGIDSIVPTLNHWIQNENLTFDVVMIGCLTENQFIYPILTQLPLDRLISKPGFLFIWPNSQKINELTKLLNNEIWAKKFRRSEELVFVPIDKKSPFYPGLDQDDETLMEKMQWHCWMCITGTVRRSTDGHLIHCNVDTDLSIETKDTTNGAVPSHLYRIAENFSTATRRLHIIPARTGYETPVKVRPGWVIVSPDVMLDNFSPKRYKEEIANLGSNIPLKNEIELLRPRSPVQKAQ

[2] = biological target: T2, Kar4p E260K fused to the Gal4p DNA-binding domain (S. cerevisiae) (UniProt P25583)
T2 sequence: T1 sequence with P157A, E260K

[3] = biological target: T3, Kar4p G287D fused to the Gal4p DNA-binding domain (S. cerevisiae) (UniProt P25583)
T3 sequence: T1 sequence with P157A, G287D

[4] = biological target: T4, Kar4p M207R fused to the Gal4p DNA-binding domain (S. cerevisiae) (UniProt P25583)
T4 sequence: T1 sequence with P157A, M207R

[5] = biological target: T5, Kar4p fused to the Gal4p DNA-binding domain (S. cerevisiae) (UniProt P25583)
T5 sequence: T1 sequence with P157A

[6] = biological target: T6, Kar4p F186S fused to the Gal4p DNA-binding domain (S. cerevisiae) (UniProt P25583)
T6 sequence: T1 sequence with P157A, F186S

B1: Ste12p (protein, UniProt P13574 1-688)
chain: MKVQITNSRTEEILKVQANNENDEVSKATPGEVEESLRLIGDLKFFLATAPVNWQENQIIRRYYLNSGQGFVSCVFWNNLYYITGTDIVKCCLYRMQKFGREVVQKKKFEEGIFSDLRNLKCGIDATLEQPKSEFLSFLFRNMCLKTQKKQKVFFWFSVAHDKLFADALERDLKRESLNQPSTTKPVNEPALSFSYDSSSDKPLYDQLLQHLDSRRPSSTTKSDNSPPKLESENFKDNELVTVTNQPLLGVGLMDDDAPESPSQINDFIPQKLIIEPNTLELNGLTEETPHDLPKNTAKGRDEEDFPLDYFPVSVEYPTEENAFDPFPPQAFTPAAPSMPISYDNVNERDSMPVNSLLNRYPYQLSVAPTFPVPPSSSRQHFMTNRDFYSSNNNKEKLVSPSDPTSYMKYDEPVMDFDESRPNENCTNAKSHNSGQQTKQHQLYSNNFQQSYPNGMVPGYYPKMPYNPMGGDPLLDQAFYGADDFFFPPEGCDNNMLYPQTATSWNVLPPQAMQPAPTYVGRPYTPNYRSTPGSAMFPYMQSSNSMQWNTAVSPYSSRAPSTTAKNYPPSTFYSQNINQYPRRRTVGMKSSQGNVPTGNKQSVGKSAKISKPLHIKTSAYQKQYKINLETKARPSAGDEDSAHPDKNKEISMPTPDSNTLVVQSEEGGAHSLEVDTNRRSDKNLPDAT
binding [1]: no binding
binding [2]: binds
binding [3]: binds
binding [4]: binds
binding [5]: binds
binding [6]: no binding

Source: PMC10470960
